Experimental findings from ChEMBL document CHEMBL4888484, “Replenishing the malaria drug discovery pipeline: Screening and hit evaluation of the MMV Hit Generation Library 1 (HGL1) against asexual blood stage Plasmodium falciparum ,using a nano luciferase reporter read-out” (2022) are described below.

Broadly, the % Inhibition is the change of the read-out against control, counted positive when it falls.

The whole screen tested about 150,000 compounds, of which about 540 (0.36%) showed an effect of 50% or more. The list shows a part of the results.

The subject of the test is Plasmodium falciparum. Kind of test: Primary screen in NF54 nanoGlo assay, in single point, at 2uM, 72h; a lower Z score goes with more inhibition. It is filed as functional, Erythrocyte. To be noted: timepoint 72 hour.
Consider `CN(Cc1cnc2ccccc2c1)C[C@H]1CCCCN1C`, for which the “% Inhibition” value turned out to be 1% and the Z score is reported as -0.14.
Consider `CN1CCC(NC(=O)CC2OCCCO2)C1c1ccccc1` (stereo unspecified), for which the “% Inhibition” value was -1% and the Z score was 0.22.
The corresponding values for `CCC(NC(=O)NCC1CN2CCCC2CO1)c1c(C)nn(C)c1C` (stereo unspecified) are 2% and -0.18.
For `COCCCOc1ccc(C(=O)N(CCN(C)C)CC(C)C)cn1`, in that order: -6% and 1.06.
Take `CCc1ccc(Nc2ncnc(N3CCCC3)c2C#N)cc1`: the “% Inhibition” value was -16% and the Z score is listed as 1.57.
The corresponding values for `FC(F)(F)c1ccc([C@@H]2CNCCN2)cc1` are 0% and -0.02.
Take `O=C(CC[C@@H]1N=C(O)N(Cc2ccccc2)C1=O)Nc1cccc(Cl)c1`: the “% Inhibition” value came to 1% and the Z score is -0.08.
The corresponding values for `Cc1ccc(F)cc1NC(=O)NC1CCOC2(CCOC2)C1` (stereo unspecified) are 1% and -0.14.
For `N#Cc1cccnc1OC1CCC2(CC1)OCCO2`, in that order: 2% and -0.34.
The corresponding values for `COc1ccc(OCC(=O)N2CCCN(c3cc(=O)n(C(C)C)c(=O)n3C(C)C)CC2)cc1` are -11% and 1.87.
Turning to `CCOc1ccc(CN(C)[C@@H](CC)c2ccccn2)cn1`, the “% Inhibition” value was determined as 11% and the Z score is reported as -1.71.
For `Brc1cnn(CCc2ccc(N[C@H]3CCCn4ccnc43)cc2)c1`, in that order: -1% and 0.19.
The corresponding values for `CCCN(CC(F)F)C(=O)c1ccn(C(F)F)n1` are -7% and 0.7.
For `CCOC(=O)N1CCN(C(=O)c2cccc(-c3cccc(C#N)n3)c2)CC1`, in that order: 0% and 0.03.
As to `CC(C)N1C(=O)C2C3CC4C(OC1C42)C3O` (stereo unspecified), the “% Inhibition” value is given as -3% and the Z score was 0.23.
For `COc1ccc(-c2csc(CCn3nc(C)c4c(C(F)(F)F)cc(-c5cccs5)nc43)n2)cc1`, in that order: -1% and 0.13.
The corresponding values for `Cn1nccc1CNCc1ccc(Br)c2cccnc12` are 10% and -1.28.
For `CC(C)(C)C(=O)NCC(=O)Nc1cccn(CC(F)(F)F)c1=O`, in that order: -3% and 0.48.
For `CC1OCCC1S(=O)(=O)NCCN1CC2CCC(C1)O2` (stereo unspecified), the “% Inhibition” value is -2% and the Z score was found to be 0.27.
For `CC(=Cc1ccccc1)CNC(C)(C)CCN1CCN(C)CC1`, in that order: -3% and 0.58.
Consider `COCC1(C(=O)N2CC[C@H]3[C@H](CCC(=O)N3CCc3cccs3)C2)CCC1`, for which the “% Inhibition” value was -2% and the Z score is listed as 0.38.
Take `Cc1cnc(C(=O)Nc2ccc3c(c2)NC(=O)[C@H](C)O3)cn1`: the “% Inhibition” value is listed as -6% and the Z score came out at 1.05.
The corresponding values for `Cc1cn(CC(=O)c2ccc(NC(=O)CC(C)C)cc2)cc(Br)c1=O` are -23% and 2.31.
For `O=C(c1cccs1)N1CCN(S(=O)(=O)c2cccc3nonc23)CC1`, in that order: -15% and 1.81.
For `CCNC(=O)NCCOC(=O)c1ccccc1COC`, in that order: -11% and 1.08.
As for `C#CCOC[C@@H](O)CN(Cc1ccco1)Cc1c(-c2ccccc2)nn(C)c1Oc1ccc(C)cc1`, the “% Inhibition” value came out at 13% and the Z score is recorded as -1.91.
The corresponding values for `Cc1ccc(-n2nc(C(=O)Nc3cc(Cl)ccc3C)cc2-c2cccnc2)cc1` are -4% and 0.48.
For `Cc1c(NC(=O)[C@@H]2CCCO2)cccc1C(=O)N1CCc2sccc2C1`, in that order: 9% and -1.17.
With `CC(C)CN([C@H]1CCCc2cccnc21)S(=O)(=O)c1cnnn1C`, the “% Inhibition” value is -3% and the Z score was found to be 0.3.
The corresponding values for `CCc1cnc(C)nc1-c1ccc(C(=O)N(CC)[C@H]2COC[C@@H]2O)cc1` are 0% and 0.01.
For `COc1ccc(N2CCN(C(=O)c3ccc4ccccc4n3)CC2)cc1`, in that order: -1% and 0.15.
The corresponding values for `Cc1nn(C)c(C)c1C(=O)C(=O)N(CCc1cccc(F)c1)C1CC1` are -6% and 0.79.
For `COCC(=O)N[C@H]1[C@H](c2ccccc2)N(CC2CC2)CC[C@@]1(C)O`, the “% Inhibition” value is -2% and the Z score worked out at 0.23.
The corresponding values for `O=C(CCc1ccc(O)cc1)N1C[C@H]2CC[C@@H](C1)N(CC1CCC1)C2=O` are 4% and -0.59.
The corresponding values for `COc1cc(C(=O)OCC(=O)NC2CCCCCC2)ccn1` are -14% and 1.9.
For `C[C@@H](COc1ccccc1)NCCS(=O)(=O)N(C)C`, in that order: -23% and 2.34.
For the molecule `COC(=O)[C@]1(NC(=O)c2cccn2C)CCCN(Cc2ccccc2)C1`, the “% Inhibition” value is recorded as -7% and the Z score was found to be 1.02.
For `Cn1ccnc1C(=O)NCc1cccc2[nH]ccc12`, in that order: -19% and 1.66.
Turning to `CCc1ncncc1C(=O)N1CCN(C2CCC2)C[C@H](C)C1`, the “% Inhibition” value was -4% and the Z score is reported as 0.42.
For the molecule `Cc1cccc(NC(=O)C(=O)c2ccc3c(c2)CCC3)c1`, the “% Inhibition” value was -4% and the Z score was determined as 0.58.
The corresponding values for `N#CCc1ccc(OCc2ccccc2NC(=O)NC2CCCCC2C#N)cc1` (stereo unspecified) are -1% and 0.18.
For `O=C(c1cnc[nH]1)N1CC[C@@]2(CCCN(CCC3CCCCC3)C2)C1`, in that order: -6% and 0.78.
For the molecule `O=C(NCC(F)F)[C@H]1CCCN(C2CCN(C3Cc4ccccc4C3)CC2)C1`, the “% Inhibition” value is recorded as -12% and the Z score is reported as 1.47.
The corresponding values for `CCCc1nc(N2CCCN(C(=O)Nc3ccc(C)c(Cl)c3)CC2)c2c(C)nn(-c3ccccc3)c2n1` are 4% and -0.72.
The corresponding values for `O=C(NC(c1ccccc1)c1ccccc1)c1csc(CN(Cc2ccc(F)cc2)Cc2ccc(Cl)cc2)n1` are -18% and 1.79.
The corresponding values for `CC(C)(C)c1cc(C(=O)Nc2nnc(-c3ccoc3)[nH]2)[nH]n1` are 5% and -0.64.
In the case of `O=C(NCC(F)F)c1ccc(Cl)cn1`, the “% Inhibition” value is recorded as -3% and the Z score came out at 0.51.
For `O=C(Nc1nn(-c2cccc(F)c2)c2cccc(N3CCOC3=O)c12)C1CCC1`, in that order: 0% and 0.01.
For `CC(C)[C@H]1CN(C(=O)CCCn2cncn2)C[C@@H]1NS(=O)(=O)N(C)C`, in that order: -3% and 0.48.
For `Cc1nc(CCNC(=O)C2CC2c2ccncc2)cs1` (stereo unspecified), in that order: -2% and 0.23.
`O=C(c1ccc(O)cc1)N1CCN(Cc2ccccn2)[C@@H]2CS(=O)(=O)C[C@@H]21`: the “% Inhibition” value is reported as 3% and the Z score is -0.42.
The corresponding values for `Cc1ccc(C(=O)N2CCC[C@H]2c2nnc3ccccn23)cc1F` are 5% and -0.66.
The corresponding values for `CC(C)c1ccn(C2(C(=O)O)CCN(Cc3cccc(C#N)c3)CC2)n1` are -6% and 1.17.
For `CCOC(=O)c1cc(-c2ccc(N3CCN(C(=O)c4ccc5c(c4)OCCN5C)CC3)cc2)n(-c2ccc(F)cc2)n1`, the “% Inhibition” value worked out at 2% and the Z score was -0.26.
Consider `COc1ccc(Cl)cc1NC(=O)Cn1cnc2c(C(N)=O)nsc2c1=O`, for which the “% Inhibition” value was -8% and the Z score amounted to 1.02.
Turning to `Cc1n[nH]c(C)c1NC(=O)Nc1ccc2c(c1)C(=O)CCC2`, the “% Inhibition” value is -7% and the Z score turned out to be 0.66.
The corresponding values for `CN(C)CC[C@H]1CN(C/C=C/c2ccc(F)cc2)CCO1` are 15% and -1.97.
For `C[C@@H]1CN(C(=O)NCCc2ccccc2F)C[C@]1(C)O`, in that order: -11% and 1.74.
The corresponding values for `C[C@H](NS(=O)(=O)Cc1ccc(Cl)c(F)c1)c1nccs1` are -11% and 1.54.
Take `O=C(O)[C@H]1CCCC[C@H]1C(=O)NCc1ccccc1`: the “% Inhibition” value is reported as -9% and the Z score worked out at 1.22.
Take `O=C(Nc1cc(Oc2ccc(F)cc2)cc(Oc2ccc(F)cc2)c1)c1cc2nc(-c3cccs3)cc(C(F)(F)F)n2n1`: the “% Inhibition” value is given as -12% and the Z score was 1.9.
For `Cc1ccc(S(=O)(=O)NCC2(c3ccsc3)CCCC2)s1`, in that order: 2% and -0.36.
For `O=C(c1cc2ccccc2o1)N1CC(c2nc(-c3cnccn3)no2)C1`, in that order: -5% and 0.86.
As for `CCc1ccnc(C(=O)Nc2nnn(C)c2C(F)F)c1`, the “% Inhibition” value is reported as -12% and the Z score is recorded as 1.29.
The corresponding values for `CC(C)Oc1ccccc1NC(=O)NC1C2CCOC2C1(C)C` (stereo unspecified) are 5% and -0.73.
For `Cc1cc(OCC(=O)c2ccc3c(c2)N(CC(=O)N2CCCC[C@@H]2C)C(=O)CO3)ccc1Cl`, the “% Inhibition” value is -2% and the Z score is listed as 0.24.
The corresponding values for `Cc1nc(-c2ccc(N3CCN(C(=O)[C@@H]4CCC(=O)N4)CC3)nc2)no1` are 1% and -0.07.
Regarding `Cc1cc2c(cc1C)O[C@H](C(=O)Nc1nnn[nH]1)C2`, the “% Inhibition” value came out at 40% and the Z score is given as -5.1.
The corresponding values for `O[C@H]1[C@H](NC2CCC2)[C@H]2CO[C@H](O2)[C@@H]1n1cnc2ccccc21` are 14% and -1.64.
For the molecule `Cc1ccc(C)c(-c2[nH]c([C@@H]3CC=CCC3)nc2-c2ccccc2)c1`, the “% Inhibition” value is listed as 1% and the Z score was -0.11.
For `CC(C)(C)NC(=O)COC(=O)c1ccc(F)c(Cl)c1`, in that order: 30% and -3.4.
For the molecule `Cc1cc(CN2CC[C@H](c3nc(C)no3)C2)on1`, the “% Inhibition” value was -15% and the Z score came out at 2.11.
For `CCOc1cc(CNc2ccc(C(=O)NCCC(N)=O)cc2)c2c(c1)C[C@H](C)O2`, in that order: -14% and 1.89.
For `CCCc1cnc(C)nc1N1CCC2(CCC(=O)N(CCc3c[nH]cn3)C2)CC1`, in that order: -23% and 3.
`Cn1ccnc1C(=O)N1CCC[C@@](F)(c2nc(-c3cccnc3)no2)C1`: the “% Inhibition” value is given as -10% and the Z score turned out to be 1.32.
Turning to `CCOC(=O)C(NC(=O)CCC1CCC1)C(O)c1cccnc1` (stereo unspecified), the “% Inhibition” value was -12% and the Z score is listed as 1.76.
In the case of `COCCC1(C(=O)Nc2nnn(Cc3ccccc3F)c2C)CCC1`, the “% Inhibition” value turned out to be 7% and the Z score is -0.8.
For `CC(C)c1cc(N(C)[C@H]2CCO[C@@H]2c2cccnc2)nc(N(C)C)n1`, in that order: -6% and 1.14.
For `CCn1cc(NC(=O)CCN2CCN(c3ccccc3)CC2)cn1`, in that order: -14% and 1.46.
With `Cn1nccc1C(=O)NC[C@H]1CCCN(c2ccncc2)C1`, the “% Inhibition” value turned out to be 14% and the Z score was -2.14.
Consider `O=C(NCc1cccnc1N1CCCCCCC1)c1ncoc1C1CC1`, for which the “% Inhibition” value was 10% and the Z score was -0.95.
The corresponding values for `O=C(NCC1(CO)CC1)C1(c2cccs2)CCCCC1` are 10% and -1.88.
For `CN(C)c1ccc(C(=O)N2CCOc3ccccc3[C@@H]2CO)cc1`, in that order: -4% and 0.7.
